Results: PubChem BioAssay AID463173 (ICCB-Longwood Screening Facility, Harvard Medical School, 2010)
Screen size: about 52,000 compounds; about 1,700 (3.3%) were called active. No stated cut-off is given here; in the data, active means survival mostly below about 52% (no sharp cut-off); inactive means mostly above about 56%. This is one part of the list.

Tested on: Wild type
Experiment: growth inhibition of S. aureus wild type versus tarO mutant, primary screen, teichoic acid synthesis inhibitors, RN4220, OD600 (AID 463173)
Conditions: S. aureus RN4220 wild type/DeltatarO growth, OD600, 18 h, hits give low values, screened at 18.75 µg/mL (by protocol)

SMILES | survival
Cc1csc2nc(COC(=O)c3ccccc3NC(=O)c3ccc(F)cc3)cc(=O)n12 | active: 14%
COc1cccc(NC(=O)CSc2nc3ccccc3nc2N2CCOCC2)c1 | inactive: 67%
CCc1ccc(CN2C(=O)c3ccccc3C2C(=O)NCCc2ccc(OC)c(OC)c2)cc1 (stereo unspecified) | inactive: 70%
CN(CC(=O)Nc1cccc(C(F)(F)F)c1)S(=O)(=O)c1ccc2[nH]c3c(c2c1)CCCC3 | inactive: 71%
COc1ccc(Cl)cc1NC(=O)CSc1nccn1Cc1ccco1 | inactive: 73%
COc1ccc(CC(=O)NCc2nc3cccnc3n2Cc2ccc(F)cc2)cc1OC | inactive: 73%
Cc1ccccc1NC(=O)c1sc2nc3c(cc2c1N)CCCC3 | inactive: 74%
Cc1ccc(C)c(N2CCN(C(=O)c3ccc(CS(=O)(=O)c4ccc(Br)cc4)o3)CC2)c1 | inactive: 145%
CCOc1cc2[nH]c(=O)n(Cc3ccc(C(=O)NCCN(CC)CC)cc3)c(=O)c2cc1OCC | inactive: 80%
COc1ccc(NC(=O)c2cc3c(=O)[nH]c4ccccc4c3n2C)cc1Cl | inactive: 72%
O=C(CN1CCOCC1)Nc1ccc(Cl)c(NC(=O)c2ccc(Cl)cc2)c1 | inactive: 108%
CCCN(C(=O)CCc1nc(-c2ccccc2F)no1)c1ccc(CC)cc1 | active: -2%
NC(=O)CSc1nnc(-c2ccccc2)n1-c1ccccc1 | inactive: 99%
Cc1ccc(S(=O)(=O)Nc2cc3c(cc2NCc2ccccc2)n(C)c(=O)n3C)c(C)c1 | inactive: 72%
CCN1CCN(CC(=O)NC23CC4CC(CC(C4)C2)C3)CC1 | inactive: 105%
O=C(CSCc1cccc(F)c1)NCc1ccccc1 | inactive: 85%
Fc1cccc(-n2ncc3c2ncn2nc(COc4ccc(Cl)cc4)nc32)c1 | inactive: 115%
CCCC1=Nc2cc(C(=O)NCc3ccc(OC)cc3)ccc2Sc2ccc(C)cc21 | inactive: 94%
COc1ccc(C(C(=O)NC2CCCC2)N(Cc2ccc(C)cc2)C(=O)c2ccn[nH]2)cc1OC (stereo unspecified) | inactive: 103%
COc1ccc(-c2cc3nc(C)c(CCC(=O)Nc4ccccc4C(C)=O)c(C)n3n2)c(OC)c1 | inactive: 76%
COc1ccc(-n2c(=O)c3c(c4cc(OC)ccc4n3C)n(Cc3cccc(OC)c3)c2=O)cc1 | inactive: 81%
O=C(CCC1N=C2c3ccccc3N=C(SCc3ccc(F)cc3)N2C1=O)NCc1ccc(F)cc1 (stereo unspecified) | inactive: 59%

SMILES | survival
O=C(CCc1nc(CN2CCN(S(=O)(=O)c3ccc(Cl)cc3)CC2)no1)N1CCCCC1 | inactive: 126%
Cc1cccc(Cn2c(SCc3ccc(C(=O)NCCc4ccccc4)cc3)nc3ccncc32)c1 | inactive: 82%
CCc1cccc(C)c1NC(=O)Cn1ccn(-c2cccc(OC)c2)c(=O)c1=O | inactive: 84%
CCOc1ccc(-c2nc(CSCC(=O)N3CCN(c4ccc(F)cc4)CC3)c(C)o2)cc1 | inactive: 113%
CCOc1ccc(C(=O)NCCn2cc(SCC(=O)Nc3ccc4c(c3)OCCO4)c3ccccc32)cc1 | inactive: 74%
Cc1nc2scc(C)n2c(=O)c1S(=O)(=O)Nc1ccc(N2CCOCC2)c(Cl)c1 | inactive: 78%
CCC(C(=O)Nc1cc(OC)cc(OC)c1)n1nc(-c2ccc(C)c(C)c2)ccc1=O (stereo unspecified) | inactive: 87%
CN1CCc2c(sc3c2C(=O)NC(c2ccc(OC(=O)c4ccc(C(C)(C)C)cc4)cc2)N3)C1 (stereo unspecified) | inactive: 98%
CCN(CC)C(=O)c1sc2c(c1C)c(=O)n(-c1ccc(Cl)c(Cl)c1)c(=O)n2Cc1ccccc1C#N | inactive: 77%
COCCCNc1oc(/C=C/c2cc(OC)c(OC)c(OC)c2)nc1C#N | inactive: 81%
COc1cc(NC(=O)Cn2c(=O)n(Cc3ccco3)c(=O)c3sc4ccccc4c32)cc(OC)c1 | inactive: 86%
Cc1ccccc1OCC(=O)OC1CCCN(C)C1 (stereo unspecified) | inactive: 90%
Cc1cccc(NC(=O)CSc2ncc3c(n2)-c2ccccc2N(Cc2ccc(F)cc2)S3(=O)=O)c1C | inactive: 74%
CCC(C)NC(=O)c1cc(-c2cccc(OC)c2)on1 (stereo unspecified) | inactive: 64%
Cc1ccc(C)c(N2CCN(C(=O)C3CCN(c4nc5ccc(C)cc5[nH]4)CC3)CC2)c1 | inactive: 73%
Cc1ccc(N2CCN(C(=O)c3c(C)oc4ncn(CC(C)C)c(=O)c34)CC2)c(C)c1 | inactive: 92%
CN(C)c1ccc(-c2nc(-c3cc4cc(Cl)ccc4oc3=O)cs2)cc1 | inactive: 72%
Cc1ccc(Oc2c(C(F)(F)F)oc3c(CN4CCC(C)CC4)c(O)ccc3c2=O)cc1 | inactive: 66%
CCc1cccc(NC(=O)CCC(=O)N2CCSc3ccccc32)c1 | inactive: 88%
Cc1cccc(CCNC(=O)c2ccc3c(c2)N(Cc2ccccc2F)C(=O)c2ccccc2S3)c1 | inactive: 73%
Cc1cc(-c2ccc(C)c(S(=O)(=O)N3CCN(c4cccc(C(F)(F)F)c4)CC3)c2)on1 | inactive: 91%
CCN(CC)C(=O)c1c(-c2ccccc2)c(-c2ccccc2)nn(C)c1=O | inactive: 83%

SMILES | survival
CCc1ccc(C(=O)c2cn(CC(=O)Nc3cc(C)ccc3C)c3nc(C)ccc3c2=O)cc1 | inactive: 113%
Cc1cc2ccccc2n1-c1ccc(C(=O)N2CCC(C(=O)NCc3ccc(Cl)cc3)CC2)s1 | inactive: 63%
COc1ccccc1NC(=O)NC1(C(=O)N2CCCCC2)CCCCC1 | inactive: 103%
CC(=O)N1CCCc2cc(S(=O)(=O)N3CCC(C(=O)Nc4cccc(Cl)c4C)CC3)ccc21 | inactive: 71%
COc1ccc(N2CCN(C(=O)CCn3nc(C)c(S(=O)(=O)N4CCCC4)c3C)CC2)cc1 | inactive: 80%
O=C(CSc1nnc(-c2cccs2)o1)Oc1ccccc1 | inactive: 83%
CC(/C=N/NC(=O)Cc1cccn1C)=C\c1ccco1 | inactive: 112%
N#CC(=C1CCN(Cc2ccccc2)CC1)c1ccccc1 | inactive: 110%
CCN(CC)CCCNC(=O)c1ccc(-c2nc(CN3CCc4ccccc43)c(C)o2)cc1 | inactive: 65%
O=C(CSc1nnc(-c2ccccc2)o1)c1cccc([N+](=O)[O-])c1 | inactive: 134%
COC(=O)c1cc(S(=O)(=O)N2CCN(c3cccc(C)c3)C(C)C2)cn1C (stereo unspecified) | inactive: 76%
O=C(Cn1ncc2c3ccccc3n(Cc3ccc(Cl)cc3)c2c1=O)NCc1ccccn1 | inactive: 93%
NC(=O)c1ccccc1NC(=O)c1ccc(-c2ccc(Br)cc2)o1 | inactive: 95%
CCc1ccc(-n2cnc3cc(C(=O)NCc4ccc(C)cc4)ccc32)cc1 | inactive: 65%
CCOc1ccc(C(=O)Nc2ccc3nc(SCCOc4ccccc4)sc3c2)cc1 | inactive: 92%
CCN(CC)CCCNC(=O)c1ccc2c(=O)n(CCc3ccccc3)c(=O)[nH]c2c1 | inactive: 74%
CC(=O)c1cccc(NC(=O)Cn2nc(C)n3cccc3c2=O)c1 | inactive: 109%
CCOC(=O)c1c(C)[nH]c(CCC(=O)NCc2ccc(CC)cc2)c1C | inactive: 72%
CCC(Sc1nc2cc(OC)c(OC)cc2c2nc(-c3ccccc3)nn12)C(=O)Nc1cccc(C)c1 (stereo unspecified) | inactive: 76%
COc1ccc(NC(=O)C2=C(C)Nc3nc(SCc4ccccc4C)nn3C2c2cc(OC)c(O)c(OC)c2)cc1 (stereo unspecified) | inactive: 89%
Cc1ccc(-n2ncc(C(=O)NCc3cccs3)c2C2CCN(C(=O)OC(C)(C)C)CC2)c(C)c1 | inactive: 95%
Cc1ccc(CSc2nnc(CCNC(=O)OC(C)(C)C)o2)cc1 | inactive: 138%

SMILES | survival
O=C(NCc1ccccc1Cl)c1ccc(CSCc2ccccc2Cl)o1 | inactive: 66%
COc1ccc(OC)c(NC(=O)CSc2nnc3ccc4ccccc4n23)c1 | inactive: 74%
COc1ccc(NC(=O)CCn2c(=O)c3cccn3c3cccnc32)c(OC)c1 | inactive: 110%
CCC(C(=O)NCc1ccccc1)n1nc(C)c2sc3ccccc3c2c1=O (stereo unspecified) | inactive: 88%
CCc1ccc(NC(=O)CCn2nc(-c3ccccc3OC)c3c(C)cc(C)nc32)cc1 | inactive: 88%
COc1ccc(-c2noc(CC(=O)Nc3ccc(F)cc3F)n2)cc1 | inactive: 85%
Cc1ccc(-c2nnc(Nc3cccc(O)c3)c3ccccc23)cc1S(=O)(=O)N1CCOCC1 | inactive: 92%
COc1ccc(NC(=O)CSc2nnc(CNc3ccc(C)cc3C)o2)c(OC)c1 | inactive: 112%
COc1ccccc1OC(C)C(=O)Nc1ccc(-c2nc3ccccc3s2)cc1 (stereo unspecified) | inactive: 98%
CC1(C)CC(CC(=O)O)(Cc2ccccc2)CCO1 (stereo unspecified) | inactive: 90%
CN(Cc1ccccc1)C(=O)Nc1ccc2c(c1)N(C)C(=O)c1ccccc1S2 | inactive: 104%
c1ccc(Nc2c(-c3c[nH]c4ccccc34)nc3ccccn23)cc1 | inactive: 66%
COc1ccc(-c2cc(C(=O)OC(C)C(=O)c3ccccc3)c3cccc(Cl)c3n2)cc1 (stereo unspecified) | inactive: 71%
Cc1ccc2nc(N3CCC(C(=O)N4CCN(c5cccc(Cl)c5)CC4)CC3)[nH]c2c1 | inactive: 74%
CCOCCCNC(=O)C(c1ccc(C)cc1)N(Cc1ccc2c(c1)OCO2)C(=O)c1ccc(NC(C)=O)cc1 (stereo unspecified) | inactive: 71%
CCC(C)NC(=O)c1ccccc1NC(=O)CN1C(=O)c2cccc3cccc1c23 (stereo unspecified) | inactive: 67%
Cc1ccc(C2c3[nH]c4ccccc4c3CCN2C(=O)c2cccc(C)c2)cc1 (stereo unspecified) | inactive: 135%
CC(C)Nc1ccc(-c2nc(-c3ccco3)no2)cc1[N+](=O)[O-] | inactive: 117%
Cc1cccc(OCC(=O)Nc2ccc(Cl)c(-c3nc4ncccc4o3)c2)c1C | inactive: 38%
COc1cc2cc(CNc3ccc(C)cc3)c(=O)n(CC(=O)Nc3ccc(F)cc3F)c2cc1OC | inactive: 77%
